This is one part of the list.
Assays:
HSkMC = human skeletal muscle cells; test: cytotoxicity call (relative viability < 0.9); details: 10 µM
HepG2 = test: cytotoxicity call (relative viability < 0.9); details: 10 µM
S. aureus RN4220 = test: growth inhibition call (relative growth <= 0.2); details: 50 µM

Compound | cytotoxicity call (HSkMC) | cytotoxicity call (HepG2) | growth inhibition call (S. aureus RN4220)
OCCN1C[C@H](O)[C@@H](O)[C@H](O)[C@H]1CO | inactive | inactive | inactive
COc1ccc(S(=O)(=O)Nc2ccc3c(c2)CC(=O)N([C@H](C)CO)C[C@H](C)[C@H](CN(C)C(=O)NC(C)C)O3)cc1 | inactive | inactive | inactive
COc1ccc(CN(C)C[C@@H]2OCCCC[C@@H](C)Oc3ccc(NS(=O)(=O)c4ccc(Cl)cc4)cc3C(=O)N([C@H](C)CO)C[C@@H]2C)cc1 | inactive | inactive | inactive
C[C@H]1CCCCO[C@@H](CN(C)S(=O)(=O)c2ccccc2)[C@@H](C)CN([C@@H](C)CO)C(=O)c2cc(NC(=O)CCC(F)(F)F)ccc2O1 | inactive | inactive | inactive
O=C(C[C@H]1CC[C@@H]2[C@H](COC[C@H](O)CN2C(=O)c2ccc(F)cc2)O1)NCCCN1CCOCC1 | inactive | inactive | inactive
COC(=O)Cc1csc(CC(N)=O)n1 | inactive | active | inactive
C[C@@H]1CN([C@@H](C)CO)C(=O)c2cc(NC(=O)C3CCCCC3)ccc2O[C@@H](C)CCCCO[C@H]1CN(C)S(=O)(=O)c1ccccc1 | inactive | inactive | inactive
CC12CCC(=O)C=C1C1CC1C1C2CCC2(C)C1C1CC1C21CCC(=O)O1 (configuration not stated) | inactive | inactive | inactive
CC(=O)NCCOc1ccc(C(=O)O)cc1 | inactive | inactive | inactive
C[C@H](CO)N1C[C@H](C)[C@@H](CN(C)C(=O)NC2CCCCC2)Oc2ccc(NC(=O)Nc3cccc4ccccc34)cc2CC1=O | inactive | inactive | inactive
Cc1ccc(S(=O)(=O)N(C)C[C@@H]2Oc3cc(C#Cc4ccncc4)ccc3S(=O)(=O)N([C@H](C)CO)C[C@@H]2C)cc1 | inactive | active | inactive
C[C@H]1CN([C@@H](C)CO)C(=O)Cc2cc(NC(=O)Cn3cnnn3)ccc2O[C@H]1CN(C)Cc1ccc(Cl)c(Cl)c1 | inactive | inactive | inactive
C[C@@H]1CN([C@H](C)CO)C(=O)c2cc(NC(=O)Nc3ccc4c(c3)OCO4)ccc2O[C@@H](C)CCCCO[C@@H]1CN(C)Cc1ccc(C(F)(F)F)cc1 | inactive | inactive | inactive
CCOC(N)=O | inactive | inactive | inactive
C[C@@H]1CN([C@@H](C)CO)C(=O)c2cccc(NS(=O)(=O)c3cccs3)c2O[C@@H]1CN(C)Cc1ccc(Cl)c(Cl)c1 | inactive | inactive | inactive
C[C@H]1CN([C@@H](C)CO)C(=O)c2cc(NC(=O)Nc3ccc(F)cc3)ccc2O[C@@H]1CN(C)C(=O)Nc1cccc2ccccc12 | inactive | inactive | inactive
CN1CCC[C@@H](CC2c3ccccc3Sc3ccccc32)C1 | inactive | active | inactive
NC(=NC(=O)N1CCOCC1)c1ccccc1 | inactive | inactive | inactive
Cc1ccc(S(=O)(=O)N2C[C@@H](O)COC[C@H]3O[C@@H](CC(=O)NCc4ccc(Cl)c(Cl)c4)CC[C@@H]32)cc1 | inactive | inactive | inactive
C[C@@H]1CCCCO[C@H](CN(C)CC2CCCCC2)[C@H](C)CN([C@@H](C)CO)C(=O)c2cc(NC(=O)Nc3ccc(C(F)(F)F)cc3)ccc2O1 | active | active | inactive
N[C@@H](C(=O)O)C1=CCC=CC1 | inactive | inactive | inactive
C[C@@H]1CCCCO[C@@H](CN(C)S(=O)(=O)c2ccc(Cl)cc2)[C@@H](C)CN([C@H](C)CO)C(=O)c2cc(NC(=O)CCCCCC(=O)Nc3ccccc3N)ccc2O1 | inactive | inactive | inactive
CCCC#Cc1ccc2c(c1)O[C@@H](CN(C)C(=O)c1cnccn1)[C@H](C)CN([C@H](C)CO)S2(=O)=O | inactive | inactive | inactive
O=C(CCCN1CCC(O)(c2ccc(Br)cc2)CC1)c1ccc(F)cc1 | inactive | active | inactive
C[C@H]1CN([C@@H](C)CO)C(=O)Cc2cc(NS(=O)(=O)c3cn(C)cn3)ccc2O[C@H]1CN(C)CC1CC1 | inactive | inactive | inactive
C[C@@H]1CN([C@H](C)CO)C(=O)c2cc(NC(=O)NC3CCCCC3)ccc2O[C@@H](C)CCCCO[C@H]1CN(C)Cc1ccc(C(=O)O)cc1 | inactive | inactive | inactive
C=CCc1ccc(O[C@@H]2O[C@H](CO[C@@H]3O[C@@H](C)[C@H](O)[C@@H](O)[C@H]3O)[C@@H](O)[C@H](O)[C@H]2O)c(O)c1 | inactive | inactive | inactive
Cc1occc1CN | inactive | inactive | inactive
C[C@H](CO)N1C[C@H](C)[C@@H](CN(C)C(=O)N[C@H](C)c2ccccc2)OCc2ccccc2-c2ccccc2C1=O | inactive | inactive | inactive
